In article PMC4336329 (PLoS ONE, 2015):
The campaign covered roughly 310,000 compounds. About 14,000 (4.5%) showed an effect of 50% or more. The effect is printed as a negative number. Some of the results follow.

Target: human ether-à-go-go-related gene (hERG) potassium channel (human, UniProt Q12809)
Assay: primary screen, population patch clamp on CHO cells stably expressing hERG
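Note: peak tail current of the secondary pulse compared with the same well before compound.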

human ether-à-go-go-related gene (hERG) potassium channel, sequence (Q12809 whole entry, looked up): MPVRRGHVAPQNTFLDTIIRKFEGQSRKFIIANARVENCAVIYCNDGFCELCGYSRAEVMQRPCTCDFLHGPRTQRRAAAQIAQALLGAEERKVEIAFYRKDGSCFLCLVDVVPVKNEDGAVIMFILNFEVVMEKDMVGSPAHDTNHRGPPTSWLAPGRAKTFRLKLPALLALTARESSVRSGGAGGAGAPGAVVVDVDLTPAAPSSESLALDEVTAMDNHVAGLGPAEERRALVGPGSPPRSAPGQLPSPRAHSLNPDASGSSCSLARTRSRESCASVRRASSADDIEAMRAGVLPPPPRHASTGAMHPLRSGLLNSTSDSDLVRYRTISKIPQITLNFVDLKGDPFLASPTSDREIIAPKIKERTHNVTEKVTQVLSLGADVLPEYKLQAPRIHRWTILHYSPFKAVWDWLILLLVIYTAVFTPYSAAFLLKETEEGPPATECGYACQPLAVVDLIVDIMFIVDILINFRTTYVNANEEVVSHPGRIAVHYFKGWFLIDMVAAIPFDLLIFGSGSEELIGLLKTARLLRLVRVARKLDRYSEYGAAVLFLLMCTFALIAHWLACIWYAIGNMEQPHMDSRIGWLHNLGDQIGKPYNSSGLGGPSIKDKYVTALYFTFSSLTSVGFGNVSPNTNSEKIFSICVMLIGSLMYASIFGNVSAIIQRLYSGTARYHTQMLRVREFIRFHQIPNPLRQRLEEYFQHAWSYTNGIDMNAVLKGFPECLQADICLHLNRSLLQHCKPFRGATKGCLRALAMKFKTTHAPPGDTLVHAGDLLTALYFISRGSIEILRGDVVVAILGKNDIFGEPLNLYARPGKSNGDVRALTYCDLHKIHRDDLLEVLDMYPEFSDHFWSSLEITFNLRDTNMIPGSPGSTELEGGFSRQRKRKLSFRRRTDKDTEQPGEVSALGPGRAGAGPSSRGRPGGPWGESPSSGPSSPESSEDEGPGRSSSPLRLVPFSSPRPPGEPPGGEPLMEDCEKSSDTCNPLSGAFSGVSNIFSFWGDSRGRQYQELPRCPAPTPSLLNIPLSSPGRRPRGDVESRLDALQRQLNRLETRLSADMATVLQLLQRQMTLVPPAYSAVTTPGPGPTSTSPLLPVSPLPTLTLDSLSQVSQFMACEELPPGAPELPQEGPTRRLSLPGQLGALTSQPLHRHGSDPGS

Row | Compound | hERG current change (%, negative = inhibition) at 10uM [%]
1 | Cc1cc(OCCCN2CCCC2)ccc1Cl | -42.9
2 | CC(C)CC(=O)Nc1ccc2oc(-c3ccncc3)nc2c1 | 3.7
3 | CCN(CC(=O)NCc1ccc(Cl)cc1)C(=O)CCOc1ccccc1C | -71
4 | CC1(C)CC(=O)c2c(O)cc(OCC(=O)N3CCN(c4ccccc4)CC3)cc2O1 | -29.8
5 | Cn1cc(/C=C2\SC(=O)NC2=S)c2ccccc21 | -4.48
6 | CCN(CC)c1ccc(NC(=O)c2cccc(OC)c2)c(C)c1 | 2.11
7 | CC1CCN(S(=O)(=O)c2c[nH]c(=O)[nH]c2=O)CC1 | 6.09
8 | CC(=O)COC(=O)CCc1nc2ccccc2[nH]c1=O | -1.18
9 | CC(C)(C)c1ccc(/C=N/N2CCN(c3ccccn3)CC2)cc1 | 2.36
10 | COC(=O)CC1(C(=O)OC)Oc2ccc(Br)cc2C(=O)N1c1cc(Cl)cc(Cl)c1 (stereo not shown) | 6.94
11 | COCCNC(=O)COc1ccc(C)cc1C(=O)c1cc(C#N)c(=O)n(C2CC2)c1 | -21.9
12 | CN(C(=O)COC(=O)C1CCN(S(=O)(=O)c2cccs2)CC1)c1ccccc1 | -14.1
13 | O=c1[nH]cnc2c1sc1nc(C(F)F)cc(-c3ccccc3)c12 | 2.52
14 | COc1ccc2oc3c(c2c1)NC(=O)CN=C3c1ccccc1 | 14.9
15 | O=C(O)c1ccccc1NC(=S)NC(=O)c1cccc2ccccc12 | 14.3
16 | Brc1ccc(N=NNc2ccccc2)cc1 | 19
17 | O=C(Nc1cccc(S(=O)(=O)NC2=NCCC2)c1)c1cc(=O)[nH]c2ccccc12 | 9.37
18 | COc1ccccc1Nc1nc(N)nc(CSC(=S)N2CCOCC2)n1 | -9.92
19 | O=C(CCc1nnc2ccc(NCc3ccco3)nn12)Nc1cccc(F)c1 | 10.5
20 | Cc1cc(C)c(S(=O)(=O)c2ccc(F)cc2C)c(Cl)n1 | 2.43

Row | Compound | hERG current change (%, negative = inhibition) at 10uM [%]
21 | Nn1c(SCC(=O)Nc2ccc3c(c2)OCO3)nnc1-c1ccncc1 | -6.46
22 | CCS(=O)(=O)NCC(c1ccco1)N1CCN(c2ccccc2)CC1 (stereo not shown) | -2.3
23 | COc1ccc(NC(=O)c2ccc(S(=O)(=O)N(C)C)cc2)cc1OC | -5.96
24 | CCOc1ccccc1NC(=O)c1cc(C(=O)c2cc(Br)ccc2O)coc1=N | 23.1
25 | COc1ccc(CCN(C)C(=O)c2ccc(S(=O)(=O)Nc3ccccc3F)cc2)cc1OC | -10.1
26 | O=C(c1ccccc1)N(Cc1ccc(F)cc1)C1CCS(=O)(=O)C1 (stereo not shown) | 0.909
27 | O=C(Cc1coc2ccc3ccccc3c12)NCc1cccs1 | 12.7
28 | CC(C)(C)C1CCC(OCC(O)CN2CCN(c3ccccn3)CC2)CC1.Cl (stereo not shown) | -0.157
29 | COc1ccc(OC)c(S(=O)(=O)Nc2c(C)n(C)n(-c3ccccc3)c2=O)c1 | -9.06
30 | CS(=O)(=O)Nc1ccc2c(c1)C(=O)OC2 | 13.2
31 | CC(=O)Nc1nc(SCCCc2ccccc2)n[nH]1 | -19.8
32 | O=C(Nc1cccnc1)C1(c2ccccc2)CCCC1 | 4.11
33 | COc1ccc(N=Cc2cc(Cl)ccc2O)cc1Cl | 4.17
34 | Cc1c(CCCC(=O)O)sc(N)c1C(=O)c1cccc(C(F)(F)F)c1 | 4.45
35 | COCCNc1ccc([N+](=O)[O-])cc1C(=O)Nc1cccc(C)n1 | -62.7
36 | O=C1Nc2ccccc2N=C(c2ccccc2)c2ccccc21 | -15.6
37 | CCc1noc(C)c1C(=O)N(CC)CC(=O)NCc1ccc(Cl)cc1 | 2.57
38 | Cc1ccc(C)c(NC(=O)CSc2sc3c(O)cc(=O)[nH]c3c2C#N)c1 | 6.37
39 | O=C(COC(=O)CNC(=O)c1ccccc1)Nc1cccc(Br)c1 | 1.68
40 | O=C(NCCc1ccccc1)C1CCC(Cn2c(=O)c3ccccc3n(Cc3cccnc3)c2=O)CC1 (stereo not shown) | -37.3

Row | Compound | hERG current change (%, negative = inhibition) at 10uM [%]
41 | CCc1cc(-c2n[nH]c(C)c2-c2nc(C)cs2)c(O)cc1OC | 1.52
42 | CCC(=O)Nc1cccc(NC(=O)c2cccc([N+](=O)[O-])c2C)c1 | -1.36
43 | COc1ccnc2c1c(=O)n(Cc1cccc(Cl)c1)c(=O)n2C | -3.57
44 | CSc1sccc1/C=N/O | 18.6
45 | CC(C)Oc1ccccc1OCCN(C)C.O=C(O)C(=O)O | 6.22
46 | COc1ccc(OCC(=O)NC2CCCCCCC2)cc1 | 5.97
47 | COC(C(=O)Nc1ccc(F)cc1F)c1ccccc1 (stereo not shown) | -2.33
48 | COc1cc(CCC(=O)OCC(=O)Nc2cccc(S(=O)(=O)N(C)C)c2)cc(OC)c1OC | -3.79
49 | CC(=O)NC(Cc1ccc(F)cc1)C(=O)NC1CCN(C(=O)Nc2ccc(F)cc2)CC1 (stereo not shown) | -5
50 | CC1Cc2ccccc2N1C(=O)CCn1c(=O)oc2ccccc21 (stereo not shown) | 0.667
51 | Cc1cc(C)n2nc(C(=O)OCC(=O)c3cc(C)n(CC4CCCO4)c3C)nc2n1 (stereo not shown) | 13.7
52 | Cc1oc(-c2cc(F)cc(F)c2)nc1CN1CCSCC1 | 1.04
53 | COc1ccc2c(c1)n([O-])c1c([n+]2=O)CCC1 | 0.55
54 | COc1ccc(NC(=O)[C@H](C)NC(=O)C2CCN(S(=O)(=O)c3ccc(C)cc3)CC2)cc1 | 5.52
55 | COc1ccc2[nH]cc(CCn3ccc(=O)c(C)c3C)c2c1 | 16.8
56 | Cc1ccc(NC(=O)c2cc(-c3ccccc3)n(CCCN3CCOCC3)c2C)cc1 | -35.6
57 | CCCC1C2C(=O)N(c3ccccc3OC)C(=O)C2ON1c1ccccc1 (stereo not shown) | 2.27
58 | O=C(CCc1nc(-c2ccccc2)no1)N1CCCC1 | 9.62
